In all, about 150,000 compounds went through this assay and about 540 (0.36%) showed an effect of 50% or more. The list shows a part of the results.
tested on: Plasmodium falciparum; assay: Primary screen in NF54 nanoGlo assay, in single point, at 2uM, 72h; a lower Z score goes with more inhibition; assay type: functional, Erythrocyte; conditions: timepoint 72 hour

| Compound | % Inhibition | Z score |
| --- | --- | --- |
| CCC(CC)N1CC(C(=O)OC)O[C@H](C)C1 (some centres undefined) | -11% | 1.3 |
| COc1ccccc1-c1cc2nc(C)cc(N3CCN(c4ccccn4)CC3)n2n1 | -6% | 1.11 |
| Cc1cc(NC(=O)c2cccc(N(C)C)c2)sn1 | -3% | 0.47 |
| CC(=Cc1ccccc1)CN1CCO[C@H](c2nc(C)n[nH]2)C1 | -10% | 1.27 |
| CN(Cc1ccccc1)S(=O)(=O)N(C)Cc1nncn1C | 4% | -0.79 |
| COc1ccc(CC(=O)N2CCOC3CCCCC32)cc1 (centres undefined) | -10% | 1.42 |
| Cc1nnc2n1CCN([C@@H](C)C(=O)NC1(C#N)CCCCC1)C2 | 7% | -1.1 |
| NC(=O)CN1CCC(C(=O)N2CCC3(CC2)Cc2cccc(c2)Oc2cccc(c2)CCNC3=O)CC1 | -4% | 0.76 |
| CCOc1ccc2nc(C(=O)Nc3ccc(Br)cc3)sc2c1 | 8% | -0.89 |
| CC1CCC(N(C(=O)[C@H]2CC(=O)N(C3CC3)C2)C2CC2)CC1 (some centres undefined) | -1% | 0.12 |
| CC[C@H](C)NC(=O)CN1CCC(c2ocnc2C(=O)OC)CC1 | -14% | 2.12 |
| C[C@@H](CNC(=O)Nc1cccnc1)N(C)Cc1ccccc1 | -5% | 0.69 |
| Cc1n[nH]c(C2CN(C(C)c3ccncc3)CCO2)n1 (centres undefined) | -9% | 1.26 |
| Cc1ccc(N2C(=O)C[C@H](N(C(=O)c3cccs3)c3ccc(C)cc3)C2=O)cc1 | -2% | 0.27 |
| Cc1nsc(N(C)[C@H](CO)CC(C)(C)C)n1 | -8% | 1.29 |
| CCC(CC)(CC(=O)O)NC(=O)c1ccc2c(c1)CCOC2 | -2% | 0.13 |
| O=S(=O)(Nc1ccccc1O)c1cc(-c2nnc(-c3ccccc3)o2)ccc1F | 5% | -0.77 |
| CO[C@@H](C)c1noc(CN(C)C(=O)c2cc(C(C)C)n(C)n2)n1 | 2% | -0.36 |
| CCC(C)(C)NC(=O)[C@H]1C[C@H](O)CN1C(C)=O | 5% | -0.84 |
| CN(C)c1ncccc1NC(=O)CCN1CCCS1(=O)=O | -16% | 1.73 |
| CN(C[C@H]1CCCCO1)C(=O)Cc1ccsc1 | -19% | 1.66 |

| Compound | % Inhibition | Z score |
| --- | --- | --- |
| Cc1nnc(-c2cccc(NC(=O)C3CCN(C(=O)c4snnc4C)CC3)c2)s1 | -15% | 2.78 |
| Cc1nnc(-c2cncc(Br)c2)o1 | -6% | 0.86 |
| C[C@H]1Cc2ccccc2N1C(=O)c1cc(O)nc2ccccc12 | -6% | 1.13 |
| OCC[C@H]1CN(Cc2cccc3cccnc23)CCN1CC1CCCCC1 | -4% | 0.42 |
| Cc1cc(S(=O)(=O)N2CC(Oc3nccs3)C2)ccc1F | 6% | -1.01 |
| O=C(Cc1noc2ccccc12)NC1CCCCCC1 | -5% | 0.99 |
| Cc1c(C2(c3c(C)n(C)c4ccccc34)C(=O)N(C)c3ccccc32)c2ccccc2n1C | -4% | 0.58 |
| C[C@@H](c1ccccc1)n1nccc1NC(=O)NCCCN1CCCC1=O | -5% | 0.93 |
| CCN1CCC[C@H](NCCc2nc(C)c(C)s2)C1 | -15% | 1.45 |
| O=C(c1ccc[n+]([O-])c1)N1Cc2ccccc2O[C@H](c2ccccc2)C1 | -10% | 1.76 |
| COCCN1CC2(CCN(S(=O)(=O)c3cc(C)c(C)cc3C)CC2)[C@H]1c1ccncc1 | -8% | 1.4 |
| CC(C)OCCN(C)c1nc2ccccn2c1C#N | 1% | -0.07 |
| COCCNc1nc(-c2c(C)noc2C)cc(-c2c(C)nn(C)c2C)n1 | -8% | 1.18 |
| CNC(=O)c1ccnc(N2CC[C@@]3(CCCN(CCc4ccccc4)C3)C2)c1 | 12% | -1.69 |
| O=C(NCCc1ccccc1F)c1ccccc1N1C(=O)[C@@H]2Cc3c([nH]c4ccccc34)C(c3ccccc3)N2C1=O (some centres undefined) | -1% | 0.09 |
| O=C1NC(=O)[C@H](Cc2nc(-c3ccc(-c4ccccc4)cc3)no2)N1 | -3% | 0.42 |
| C1CCn2c(nnc2CC2CCCC2)C1 | -5% | 0.84 |
| CCC(=O)N(Cc1cccc(F)c1)Cc1cc(NC(=O)C2CCC2)ccc1N(C)C | -3% | 0.4 |
| Cc1nc2cc(-c3ncnn3CC(C)(C)O)ccc2s1 | -5% | 0.45 |
| CC(=O)N1CCc2cc(Br)c(S(=O)(=O)N(C)Cc3ccco3)cc21 | 2% | -0.26 |
| Cc1cc(-c2cc(C(=O)NC(C)C)ccn2)[nH]n1 | -6% | 1.18 |
